According to the supplement of paper PMC10126150:
Values marked as one replicate rest on one cluster of the flow cell; about a third of the high ones do not repeat.

System: ATP
Assay: switch fluorescence ratio, 500 uM ATP over buffer (Cy3 cluster intensity, sum of 5 cycles each) (fold (ratio)); higher = stronger signal-on switching upon ATP binding; sequences stand for … in TCGTCGGCAGCGTCAGATGTGTATAAGAGACAGTTTTTTTTTTTTTTTTTTTTTTTTT…TC
Details: aptamer strand: ATP DNA aptamer (quencher-CACCTGGGGGAGTATTGCGGAGGAAGG + anchor), 100 nM annealed; ATP concentration: 500 uM; one replicate
How it was run: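 After annealing to 100 nM quencher-labelled ATP aptamer, Cy3-labelled switching-strand clusters on a modified Illumina MiSeq flow-cell were imaged in selection buffer. A second image followed after 15 min with 500 uM ATP at 22 °C, and five such buffer/ATP cycles were done, each separated by NaOH stripping and re-annealing. The fluorescence ratio, averaged per switch-domain sequence, is summed target-cycle over summed buffer-cycle Cy3 intensity per cluster, with clusters outside 100-1000 RFU excluded.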
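Further: ATP exposure 15 min at 22 °C before imaging.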

Sequence | switch fluorescence ratio
TTACAGGGGT | 1.15
TAGTCCTAAC | 0.954
GGGTAGGAGA | 1.02
GTATGGGAGT | 1.01
CGTCTTGGCA | 1.04
ATAGTAGCTC | 0.985
CATATAAACA | 1.02
GTTGACGTTC | 0.995
ATCGATCGA | 0.925
TATATGATAT | 0.979
CATGTGCCCG | 1.05
ATTACTATTT | 1.03
ACCTATAGAA | 1.05
TCCATTATTC | 1.01
GGGCTTGGTC | 0.946
TACAAGTCCA | 1.03
TGCACACGTC | 1.02
GGCATAGCCA | 0.971
ATCATGGGCG | 0.928
GCACTGGCCC | 1.05
TTAGCTGGTT | 1.02
CTTTGGACAA | 1.02
AATCAGTAAG | 0.999
TTCCGCGG | 1.09
TAGGGGTCTA | 0.971
GATCATATCA | 0.986

Sequence | switch fluorescence ratio
ATGATCGTGT | 1.08
GATGGTGGAA | 0.984
TCGAGTTGAT | 1.07
TCACTCGGCA | 1.65
GGTATCGTG | 1.03
TCTCCGTAGG | 1.22
CGACTTGTAG | 1.02
TAGGTTCAGC | 0.991
CTATGACATC | 0.988
TAGCTCCACG | 1.04
ACTACAGCCC | 1.2
CACCCCCTGC | 1.34
TGGTGTGACT | 1.02
CGGCTTCCCG | 1.01
CCCGCTAGTT | 1.31
GATTTAGATG | 1.01
CAGAATAGGC | 1.11
TGGTGCGCA | 0.974
GCGAGCCTGT | 1
GAGGAAGATA | 1.06
GGTCTTCGCT | 0.991
CAAGGGTCGA | 1.02
CTGACATAGG | 1.03
CGTACTCAAA | 1.05
GGTTGGAGCA | 1.02
CATCAGCGCT | 1.09

Sequence | switch fluorescence ratio
GTAGTCAATT | 1.08
GATGTCATCC | 0.946
TGCCCGATCA | 0.967
CTGCCCTGT | 1
GGTGGCGATT | 1.04
CGCGAAGAAT | 0.977
CCGTATTCG | 1
AAAACTGCGT | 1.01
ACTGCATTAT | 1.23
TTTCCTTCAA | 3.22
CGCGCCCGGA | 1.04
GCGGAAAGAG | 0.983
AGGCTGCTAA | 0.997
CATAGCGGCA | 1.02
CGGGTGCTTA | 1.49
ACAGGATGGG | 1.05
GACCCGCCAG | 1.07
AGTGTGTTG | 1
TTTGTTATCC | 1.08
AAGACTAAAC | 1.03
GTGTTAGCCG | 1.05
GGTTGTATTA | 0.997
AACTGGTCCC | 1.03
GGGTCGAAC | 1.01
CTGGCCCTCT | 1.03
AGCAAATTTC | 1.03

Sequence | switch fluorescence ratio
CTGAAAGGCG | 1.05
AAGTTGAGCA | 0.983
AAGCCAAGAT | 1
TCCCTTCCAT | 1.02
GAGCGCTGCG | 0.982
AGGGCCGGGT | 1.02
GTTGTTTGGT | 0.944
TGATTTGTGC | 0.989
AGACGGGAAA | 1.05
GAAAACGGAG | 0.961
TTATGCCCGA | 1
GAAGAAGAGC | 1.03
CCTAGCAGGA | 1.23
TTACAAGTA | 1.02
CTGAACCCGG | 1.07
CTTAGAAAGG | 0.957
GAGGCAGG | 1.03
TTTGCGAGTT | 1.04
CTGATAATGA | 1.03
TAATAGCTTT | 0.994
AGCAGGTATG | 1.03
ACATAGCTCG | 1.01
GAGTCAATGG | 1.31
TTATTGATGA | 1.01
TTGCCCATGA | 0.958
TAAATCTCCG | 1.09

Sequence | switch fluorescence ratio
TTCTGGTCGA | 0.987
GATTGGCTGG | 0.99
GACAGTCTA | 0.999
CCCCGGGTAG | 3.53
TGTTTTGTCA | 1.02
CTAAGAGGTG | 1.05
TCGAGGATC | 1.04
CTGGATTGCA | 0.966
ATAGCAAACA | 1.08
GGAAATACCG | 0.974
GGCACCCTAA | 0.976
CAGACAAAGA | 1.02
AAGTTTTCAA | 0.982
CGTGGTGTG | 0.964
TGATTTAGAC | 0.979
CCATGAGT | 1.04
TGTCTCTTGT | 0.99
AGAAACTCGA | 1
CAACAAGGAC | 1.39
AGACGGGGTG | 1.02
AGGATACCTT | 1.08
CACTCTAATT | 1.04
TTAAACTAG | 0.987
AGTCTTGTGA | 1.05
CCACTGATTG | 0.993
GAGCACCGTA | 1.02

Sequence | switch fluorescence ratio
TAAAAATGGG | 0.983
TCCAGCTCAT | 1.05
ATAGTCCTGT | 0.999
TTATATTATG | 1.04
TACGTGTA | 1.04
CCATGAATTG | 0.939
ACCAGAGTCC | 1.1
GCCAAAAGTG | 0.988
TGACACTCAG | 1.03
TTTCAGTCT | 1.06
ACGTTACGAA | 1.42
GGGGCCTTAA | 1
ACAATCACGC | 1.25
AGATAGTAAC | 0.997
ATGGTTGGTT | 0.993
GATTCCTTA | 1
TGTTCGGATC | 0.995
TACTATGG | 1.01
GGGGCTCTTA | 0.966
GTTTTAAGTC | 1.01
TTGGAGAATT | 0.986
AAGTGTACCA | 1.04
GCCATGCTGC | 0.937
GGTGAGGTAA | 1.02
